# In publication PMC10726135:
# This is one part of the list. At the low end of the ranking, values are background and their order means little. The protein was read in a cell extract, so binding may be indirect.
# Target: T1, HNF4alpha2 (COS-7 nuclear extract) (UniProt P41235)
# T1 sequence: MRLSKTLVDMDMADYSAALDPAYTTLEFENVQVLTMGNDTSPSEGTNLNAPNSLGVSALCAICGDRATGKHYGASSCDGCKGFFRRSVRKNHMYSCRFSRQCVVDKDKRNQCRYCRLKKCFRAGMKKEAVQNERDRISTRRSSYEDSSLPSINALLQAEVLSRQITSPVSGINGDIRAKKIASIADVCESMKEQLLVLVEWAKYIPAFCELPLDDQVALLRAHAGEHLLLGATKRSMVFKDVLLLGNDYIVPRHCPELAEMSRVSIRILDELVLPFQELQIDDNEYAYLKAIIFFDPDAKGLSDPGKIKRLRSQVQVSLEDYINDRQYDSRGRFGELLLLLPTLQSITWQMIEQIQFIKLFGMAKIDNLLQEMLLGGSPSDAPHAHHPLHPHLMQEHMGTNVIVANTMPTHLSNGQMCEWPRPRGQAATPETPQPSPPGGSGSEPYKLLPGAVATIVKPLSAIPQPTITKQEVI
# Assay: protein-binding microarray
# Conditions: COS-7 nuclear extract on double-stranded Agilent 4x180k PBM; binding buffer, salt, pH and temperature not given; high values mean tight binding; double strand, one strand shown; sequences stand for … in …GCCTAGGGAGATTAGAGTATCGGTCGA
row,Sequence,binding signal (log2 normalized intensity)
1,AGAGTGCTTAATCTCTGCTCATAATGCCAG,0.0183
2,ACTTGGGATGCTGAGGTGGGAGGATCGCTT,-0.0501
3,TGGACTGTAATACACAAGCAATAGGGTTCG,0.186
4,GCAAGGAACGGAATGTGTGATAAGGAACTG,-0.447
5,AACTGGACAAATTCCTGGGAACTGCGGACA,-1.27
6,GCTGGCCTCATGCCTTATCTACATAGTCCC,0.0173
7,AATAAGGCTGCGACCTGCTGGGCTGCATTC,-1.29
8,AGGGGTTACTAGTGAGTTGGACTTTGGACC,11.6
9,GCCACTCATAGAACTGTCGCAGAAAACACA,-1.23
10,CCTATGGGATCAAAGTGCGACAGGGAGATT,2.93
11,GGTGTAGGGCAGAGGTCAGCCCACAGGTCA,2.78
12,AGAGTTCAAGAAGGGCAGTTGACAGAGGAC,-0.674
13,CATACAATTCATGACTCTCTTATAGGTGTT,1.81
14,TGAACCTAGATTCCAGGAAGAAAGATTGAA,-1.1
15,AGTCCAAAGGTCTGAGAACCAAGAGAGCCA,0.782
16,GGTGCTGCATGGGCTGAGCCCAGCAAACCT,-1.24
17,TGCTGGCTGGCGGCCTTTGGGTCCCTGGCC,-0.641
18,CATTCCAACACAGGGTCAATGTCCCCTTAG,3.01
19,CACCCCCACGGTGCGCTGCCCCTCACTGCC,4.83
20,CTGCTTACATTTTGCTCTGTTGTGTCAAAG,1.83
21,GCAATGATCTTCATGAACTTCTGTCCACAG,0.611
22,GAAGGACATAAATGTGCCCAGATAAGAACT,-1.1
23,ACTGCTCCACCAGCGCGTGCCTTCCCTGCA,-1.23
24,GATAGCAAGGAGACATCGCTCCTCCCTTCT,-1.24

row,Sequence,binding signal (log2 normalized intensity)
1,AAAGTTCTGCTGAGTATCCAAAGGTCAGTG,5.25
2,GATCTGAACTCAAGCTCTTAAAGAAGCAGT,-0.875
3,AGGCAGTCTGTTGACCTTTGGCCAAGGGCA,7.73
4,GCTTATCTGGGAGGGGGAGGTTTTGTGTCT,1.26
5,TAGGGACAGCTAGTCTAGACTTTGCTTTCT,3
6,TGTGCAGAGAGCAAACGAACCGGCAGCCGC,-1.06
7,GATTTGTAACCTGCAAAGAGCAAACTCCAG,-0.952
8,ACTTACATCCTCAGGTAAAGATCAACCATC,-0.587
9,GCGTAGCCCAAAGGTCAGTCTGCAGCTAAT,2.48
10,TTTCCTAAATATGTTCCAAAGTTCAACCAG,4.11
11,ACTTTGGCCGTGAAGCCGTCCTGTCCTGGA,0.362
12,AACACAAAAAGCCTGAGCATCTTATCAGCA,-1.23
13,ACTTGTTCCGGATAGCCAAATAGCCTGGTC,-0.584
14,GGCTTAGCAGCTTGAGGCTCCGATAAACCC,-0.935
15,CTGTGTATACAAAGATCAGTGTACTTAAAA,1.54
16,AACACTCACTGGGAGAGAAAGCTAATTTAA,-1.09
17,TTTCATCAGTCCAATTCACAGAACTCCCTA,-1.15
18,ACACTCTCAATCTTTGCCCTCTTGGTATCA,2.62
19,GGGGAGGTCAACCAGGGAAATTACCCTCTA,-0.241
20,AGTTGAGGTGAATACACAGCTAGCAGGTGA,-0.101
21,AGACCTTTGTTCACTTGTTTATCTGCTGCC,2.35
22,AGAGCTCAGATGAACTTTGCCTTAGGCCAT,3.41
23,GCTCCAGCCACTCATTCTTGGAATGCATTG,-0.921
24,TTCCCTACCCGGCAAAGAATTGTGAGTCCA,1.79

row,Sequence,binding signal (log2 normalized intensity)
1,TTCAGAGATGATAAGCCCTGAGTAGTTCTT,0.316
2,GCATGTCTCTGGTCGGGGAGGTGTTTATCT,1.78
3,GGAGTATAGGAACATGAACTGAGCAGGCCT,-1.04
4,TGTATAATGACACTAGCAGAAGAGACAGTC,-1.04
5,CACTCAATGCAGCAGCATTGGACCCTCCCA,5.46
6,CTCTCACTGCAGAAACTCTGCAGTAACTGT,0.0964
7,TCATGGGAATGAAAGGAGGTCATGTACATG,1.34
8,TGTTTGTTTTGAGATAGGGTCTTGCTTTGT,1.76
9,TTGAAATCTCAAATAGCTGGGTCTCACTCT,-1.1
10,AAGTAGAGGAATGCTGGTAAACACTGAGCT,-1.14
11,AGCAGCAAAGTCCTGGAAGAAACCCATTTG,-1.14
12,TACACATCAAAGTATGAGAGCCTGAGAACA,-1.04
13,TCAAAGGGAGATTCCTGACATTCAGTCTTT,-0.503
14,TTTAATACAAGTATTATCTTCCATTTCTGC,-0.426
15,CAGGCACAAGAATGGTCATTCTCTGTTGCA,-0.909
16,GGGTGGGGGTGGGGAGGATAGCAGCCCAGC,-1.21
17,AGTGACTTAATTATCAGAAGAGGAGCGATG,0.939
18,GGTTTCTTGCTGAAGGTAGGACAGGGTGAT,1.05
19,AGACTTTTTTTTTCTTAATTGCCCTTTGCC,4.26
20,AGGCAAACAGATGAAGTACTGTTCTAAATT,-1.04
21,AGGATAAAGTAAGGTGAAGCCCAGCAGCTC,-1.05
22,TGGCTGAGATCTGGAATTGGGCCAAGCACA,-0.451
23,CTGCAGCATCTGAGCAGATGTAAACATCAT,-0.985
24,GCCCCCGCAGACCCAGTCTTAGGGACTAAG,3.86
